# The list shows a part of the results. The energies were worked out here from pooled read counts, against the library average; single values are noisy.
# Target: T1, Pho4 (S. cerevisiae) (UniProt P07270)
# T1 sequence: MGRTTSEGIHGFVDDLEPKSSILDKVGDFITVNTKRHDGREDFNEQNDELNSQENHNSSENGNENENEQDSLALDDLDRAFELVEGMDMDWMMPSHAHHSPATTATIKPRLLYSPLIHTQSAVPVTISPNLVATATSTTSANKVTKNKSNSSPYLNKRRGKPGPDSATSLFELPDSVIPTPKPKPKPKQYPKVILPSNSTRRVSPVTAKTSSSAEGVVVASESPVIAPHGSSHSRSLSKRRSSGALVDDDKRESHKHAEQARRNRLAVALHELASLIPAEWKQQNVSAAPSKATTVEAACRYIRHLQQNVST
# Assay: relative binding free energy (BET-seq); higher = weaker binding
# Details: reference: library average
row,Sequence,relative binding free energy
1,AGAGACACGTGTTAAG,0.1 kcal/mol
2,GGGGGCACGTGGTCAA,-0.12 kcal/mol
3,GGTATCACGTGCGGTA,0.1 kcal/mol
4,CGTGGCACGTGCGTGA,-0.07 kcal/mol
5,TAGATCACGTGGGCGG,0.14 kcal/mol
6,GAAAGCACGTGATGGT,0.18 kcal/mol
7,CTGTACACGTGTGTTT,0.22 kcal/mol
8,GGATTCACGTGATGGT,0.42 kcal/mol
9,GATAGCACGTGGCGTA,-0.07 kcal/mol
10,GTGCACACGTGGTGAA,0.14 kcal/mol
11,AATGGCACGTGGTAGA,-0.26 kcal/mol
12,AAGGGCACGTGTTTCG,-0.09 kcal/mol
13,AGTTACACGTGGGCGG,0.04 kcal/mol
14,CGGGACACGTGTGGCG,0.05 kcal/mol
15,GACGGCACGTGTTGCG,0.11 kcal/mol
16,AAGGTCACGTGGATTT,0.29 kcal/mol
17,TGGTACACGTGTGTTG,0.11 kcal/mol
18,TGGGACACGTGGAGAA,0.23 kcal/mol
19,GGGGGCACGTGTAAGG,0.06 kcal/mol
20,GCAATCACGTGGTGGA,0.21 kcal/mol
21,ACGGACACGTGATGGT,0.14 kcal/mol
22,GGAAGCACGTGACGTG,0.08 kcal/mol
23,TTCGACACGTGTGGGT,0.16 kcal/mol
24,GTGAGCACGTGGTGTC,-0.19 kcal/mol
25,TAGCACACGTGAGTTG,0.18 kcal/mol
26,ACTGTCACGTGTCTGG,0.15 kcal/mol

row,Sequence,relative binding free energy
1,GCTTTCACGTGTAAGT,0.26 kcal/mol
2,GCTTGCACGTGTAGGG,0.08 kcal/mol
3,AAGTGCACGTGTACTG,0 kcal/mol
4,TTAAGCACGTGCATTG,-0.14 kcal/mol
5,ATGGACACGTGTGTCA,0.01 kcal/mol
6,TAGAACACGTGGGTAG,-0.08 kcal/mol
7,GTAGTCACGTGTTATC,0.19 kcal/mol
8,TTTGTCACGTGATGAT,0.22 kcal/mol
9,GTTTGCACGTGGGCAT,-0.13 kcal/mol
10,TGAATCACGTGTGGAT,0.29 kcal/mol
11,ATGCGCACGTGGTGTT,-0.16 kcal/mol
12,CTTGTCACGTGGTGCT,-0.02 kcal/mol
13,GAGTGCACGTGTATTG,0.02 kcal/mol
14,TTGCTCACGTGCGTGG,0.05 kcal/mol
15,ATTAACACGTGGGACG,0.07 kcal/mol
16,GCAATCACGTGGTTAG,0.25 kcal/mol
17,GCTTTCACGTGTGTTA,0.44 kcal/mol
18,AGTGTCACGTGCGCGG,-0.11 kcal/mol
19,TATGGCACGTGAAGGA,0.23 kcal/mol
20,AGGGCCACGTGGGCAG,-0.16 kcal/mol
21,GTGGGCACGTGCTTGA,-0.14 kcal/mol
22,TTATTCACGTGTTCTA,0.07 kcal/mol
23,GTTAGCACGTGTCATT,0 kcal/mol
24,GTGTTCACGTGTACTA,0.14 kcal/mol
25,TCGTGCACGTGAAGGG,0.17 kcal/mol
26,AATTACACGTGGCTGT,0.14 kcal/mol

row,Sequence,relative binding free energy
1,GCGAGCACGTGCGGGT,-0.22 kcal/mol
2,TAAATCACGTGGTTTA,0.05 kcal/mol
3,GTGTACACGTGGGGAA,0.11 kcal/mol
4,GAATGCACGTGGGTCG,-0.24 kcal/mol
5,GTTGCCACGTGGGCGG,-0.18 kcal/mol
6,GTGTTCACGTGTGCTT,0.15 kcal/mol
7,TTATGCACGTGAGGTC,0.24 kcal/mol
8,GGCGTCACGTGATGGC,0.22 kcal/mol
9,GATTACACGTGGGTGA,0.07 kcal/mol
10,CATTGCACGTGTGTAA,0.1 kcal/mol
11,TGTAACACGTGGATTA,-0.01 kcal/mol
12,ATGGGCACGTGGTTGC,-0.17 kcal/mol
13,AAGGACACGTGGGGTA,-0.12 kcal/mol
14,TGTTTCACGTGATTGC,0.29 kcal/mol
15,GAATGCACGTGATAAG,0.31 kcal/mol
16,AGTGCCACGTGTTTAG,0 kcal/mol
17,GGTCTCACGTGATTTA,0.24 kcal/mol
18,TTAAACACGTGATTGA,0.09 kcal/mol
19,TGTTGCACGTGGAGTA,-0.03 kcal/mol
20,TGCTTCACGTGTTTTC,0.3 kcal/mol
21,TGATTCACGTGCATGT,0.24 kcal/mol
22,GGGTGCACGTGTAGCG,0.08 kcal/mol
23,ATCGTCACGTGGAGGG,0.16 kcal/mol
24,CATGCCACGTGGGGGC,-0.13 kcal/mol
25,TTGCGCACGTGGAGTG,-0.16 kcal/mol
26,AGTGTCACGTGGCTTC,0.17 kcal/mol

row,Sequence,relative binding free energy
1,TTTTTCACGTGGCTGC,0.33 kcal/mol
2,TTTCCCACGTGTTGTG,0 kcal/mol
3,CGTGTCACGTGTAGAT,0.21 kcal/mol
4,ATGTTCACGTGTGAAC,0.35 kcal/mol
5,TGTACCACGTGCGTTT,-0.06 kcal/mol
6,TGTAGCACGTGTCTGT,-0.3 kcal/mol
7,TCGGCCACGTGGGGTG,-0.23 kcal/mol
8,GTTTACACGTGGCGGA,0.09 kcal/mol
9,TGATACACGTGTAGGA,-0.08 kcal/mol
10,GTAAACACGTGAGAGT,0.33 kcal/mol
11,TTGAGCACGTGCGGAT,-0.18 kcal/mol
12,AGCGTCACGTGGTTAG,-0.06 kcal/mol
13,CGGTGCACGTGAGATT,0.32 kcal/mol
14,TGTTGCACGTGGTGTC,-0.14 kcal/mol
15,ATGATCACGTGTGGAG,0.16 kcal/mol
16,TCTGTCACGTGGATTT,0.25 kcal/mol
17,GTGCTCACGTGTTGTT,0.27 kcal/mol
18,AGTAACACGTGGGGCT,-0.25 kcal/mol
19,TGCTACACGTGTTAGT,-0.01 kcal/mol
20,TCTACCACGTGGGGGT,-0.18 kcal/mol
21,TGGAGCACGTGTCTAG,0.04 kcal/mol
22,GCAATCACGTGGGTGA,0.07 kcal/mol
23,TGTGGCACGTGCTCTA,-0.12 kcal/mol
24,GAAGACACGTGTTGTT,-0.03 kcal/mol
25,ATGTCCACGTGTGGCG,0.02 kcal/mol
26,ATTTCCACGTGTGTTA,0.17 kcal/mol

row,Sequence,relative binding free energy
1,CATGGCACGTGTGAGA,-0.03 kcal/mol
2,GTTGTCACGTGACGTG,0.2 kcal/mol
3,GGTGCCACGTGTGCGG,-0.1 kcal/mol
4,CGTAGCACGTGGGGAT,-0.13 kcal/mol
5,TTCAGCACGTGGGGCA,-0.24 kcal/mol
6,GGATACACGTGTTTGC,0.12 kcal/mol
7,GTTGACACGTGGAGAG,-0.05 kcal/mol
8,GGGGTCACGTGTTTGT,0.15 kcal/mol
9,ATGTGCACGTGTGGTC,-0.02 kcal/mol
10,TTATGCACGTGGAGCG,-0.08 kcal/mol
11,GTTGGCACGTGCTCTT,-0.06 kcal/mol
12,GTTACCACGTGTTGTT,0.03 kcal/mol
13,TTATGCACGTGTATGA,0.02 kcal/mol
14,TCTTACACGTGGGGGT,-0.08 kcal/mol
15,ATTTACACGTGGGATA,-0.05 kcal/mol
16,AGCTACACGTGTGTGG,0.09 kcal/mol
17,CGGGCCACGTGTAGGT,0.03 kcal/mol
18,TTTTACACGTGCGCGT,-0.07 kcal/mol
19,GGTAGCACGTGGGGGA,-0.07 kcal/mol
20,ATGTTCACGTGACTAG,0.33 kcal/mol
21,GTGACCACGTGGGGGA,-0.05 kcal/mol
22,GTCTGCACGTGAGTGT,0.2 kcal/mol
23,TGGTCCACGTGAGTTT,0.2 kcal/mol
24,ATAATCACGTGTGAGG,0.03 kcal/mol
25,TTGCACACGTGTGTAG,-0.01 kcal/mol
26,AGGTTCACGTGGTCCT,0.3 kcal/mol

row,Sequence,relative binding free energy
1,TTGCACACGTGTCGGG,0.04 kcal/mol
2,CTTGTCACGTGTATGC,0.02 kcal/mol
3,ATAGGCACGTGGGAAA,-0.15 kcal/mol
4,GGGTGCACGTGGAGGG,0 kcal/mol
5,GGGAGCACGTGGGTGT,-0.1 kcal/mol
6,GTATGCACGTGATGGC,0.11 kcal/mol
7,ATCTGCACGTGGGTTG,-0.13 kcal/mol
8,CGGTGCACGTGGTGGG,-0.08 kcal/mol
9,TTGTACACGTGTTTCG,0.04 kcal/mol
10,GCGGGCACGTGCAAGG,-0.09 kcal/mol
11,ATACTCACGTGGGTGA,0.11 kcal/mol
12,TTCTTCACGTGGTATC,0.36 kcal/mol
13,ATGGTCACGTGTGGAA,0.28 kcal/mol
14,TTGGTCACGTGCTTAT,0.05 kcal/mol
15,ATAGTCACGTGTATGG,0.05 kcal/mol
16,TAGGGCACGTGGGGTC,-0.31 kcal/mol
17,TTGGTCACGTGATAAA,0.26 kcal/mol
18,GTGGCCACGTGTGGGA,-0.06 kcal/mol
19,TGAGGCACGTGGCCTT,-0.21 kcal/mol
20,AGGATCACGTGTGTGA,0.28 kcal/mol
21,TTATGCACGTGGCCTG,-0.17 kcal/mol
22,TTCAGCACGTGTATAT,-0.06 kcal/mol
23,GGATGCACGTGGAGTT,0.17 kcal/mol
24,GGTATCACGTGGGAAA,0.08 kcal/mol
25,ATCATCACGTGTGTGT,0.12 kcal/mol
26,GTTAGCACGTGGTTAT,-0.01 kcal/mol

row,Sequence,relative binding free energy
1,GCGTTCACGTGGGGAG,0.21 kcal/mol
2,GAGATCACGTGTATGG,0.19 kcal/mol
3,TAGTGCACGTGTGTAC,-0.08 kcal/mol
4,AGGTACACGTGGCCGG,0.02 kcal/mol
5,TGAAGCACGTGCTGTA,-0.1 kcal/mol
6,GTGCGCACGTGGTGGC,-0.06 kcal/mol
7,ATCTTCACGTGATTGT,0.31 kcal/mol
8,AGTTACACGTGTACTG,0.22 kcal/mol
9,GTGGTCACGTGGGATC,0.1 kcal/mol
10,AAGGCCACGTGTAGGG,-0.09 kcal/mol
11,CGATACACGTGTTGTT,0.11 kcal/mol
12,CTTGGCACGTGCTGTG,-0.29 kcal/mol
13,TCGGTCACGTGGGTTC,0.02 kcal/mol
14,GGATTCACGTGCTAGT,0.31 kcal/mol
15,TATAGCACGTGCGGGA,-0.18 kcal/mol
16,TTTCACACGTGTAGAG,0.14 kcal/mol
17,TTGGTCACGTGTAATG,0.13 kcal/mol
18,TTCTTCACGTGGTTGA,0.19 kcal/mol
19,GGCGACACGTGGGCGT,-0.19 kcal/mol
20,CATAACACGTGAGGGT,0.2 kcal/mol
21,ATTAACACGTGCGGGG,-0.05 kcal/mol
22,TTATTCACGTGCTGGT,0.19 kcal/mol
23,AAATTCACGTGGAGAT,0.27 kcal/mol
24,TCGGGCACGTGGGATC,-0.1 kcal/mol
25,TAGATCACGTGTAGTC,0.25 kcal/mol
26,ATTGACACGTGTTGGG,0.09 kcal/mol

row,Sequence,relative binding free energy
1,ATGAGCACGTGGAAGT,-0.03 kcal/mol
2,ATTATCACGTGCGCGG,0.13 kcal/mol
3,TAGGTCACGTGTTGCT,0.13 kcal/mol
4,ATGTCCACGTGCGGGT,-0.06 kcal/mol
5,AAGATCACGTGGTTGG,0 kcal/mol
6,AGTTGCACGTGGTGGA,-0.04 kcal/mol
7,TGGACCACGTGGTATG,-0.08 kcal/mol
8,GGCAACACGTGGAGTG,-0.04 kcal/mol
9,TAGGTCACGTGTGGAA,0.26 kcal/mol
10,AGTTCCACGTGTGGTA,-0.01 kcal/mol
11,TTAAGCACGTGTAGTT,0.04 kcal/mol
12,TCGTTCACGTGATGTT,0.23 kcal/mol
13,GTATGCACGTGGCTGG,-0.19 kcal/mol
14,GTAAGCACGTGAAGGT,0.1 kcal/mol
15,AGTTGCACGTGCGGAA,0.03 kcal/mol
16,GTGATCACGTGTTGCT,0.21 kcal/mol
17,CTGTTCACGTGATGGA,0.31 kcal/mol
18,ATTTACACGTGTTTTC,0.28 kcal/mol
19,AGGGGCACGTGAGGAG,0.16 kcal/mol
20,GGGTTCACGTGGTCAA,0.2 kcal/mol
21,TTGTTCACGTGTGCAG,0.15 kcal/mol
22,TAATACACGTGGGGGG,-0.02 kcal/mol
23,GCGGTCACGTGCGTGG,0.02 kcal/mol
24,TTTTACACGTGAATGA,0.38 kcal/mol
25,AAGTTCACGTGTGTGC,0.12 kcal/mol
26,TGTGTCACGTGCTCTG,-0.13 kcal/mol

row,Sequence,relative binding free energy
1,TTCGTCACGTGTGTGC,-0.06 kcal/mol
2,TTGCACACGTGGTCGG,-0.04 kcal/mol
3,TTTATCACGTGGCTGT,0.13 kcal/mol
4,TTAAGCACGTGGTAGT,-0.22 kcal/mol
5,TTCAGCACGTGTTAAG,-0.01 kcal/mol
6,GGTGTCACGTGCGGAG,-0.05 kcal/mol
7,GGTGGCACGTGCATAT,-0.14 kcal/mol
8,TTCTGCACGTGATAAT,0.14 kcal/mol
9,TGCGGCACGTGTAGCG,0 kcal/mol
10,GATGACACGTGGTATG,0.06 kcal/mol
11,GGGTTCACGTGGGGAT,0.29 kcal/mol
12,ATGGTCACGTGAAGCT,0.2 kcal/mol
13,TCGGTCACGTGTTTGT,0.15 kcal/mol
14,TGCGCCACGTGTTTTG,-0.05 kcal/mol
15,CGGGTCACGTGTGTAC,0.04 kcal/mol
16,CCAAGCACGTGGGGGG,-0.25 kcal/mol
17,GTAGACACGTGGTGTT,-0.13 kcal/mol
18,AATGTCACGTGGGAAG,0.08 kcal/mol
19,AAGTGCACGTGATTAG,-0.02 kcal/mol
20,CGGGGCACGTGTGGAT,-0.15 kcal/mol
21,GGTCGCACGTGCGGGC,-0.06 kcal/mol
22,GCTATCACGTGTTTGG,0.02 kcal/mol

# Reference: the BET-seq Pho4 binding data (Le et al. 2018)
